≈ marks a conversion by molar mass, not a printed value. Where a name gives a salt, the structure may show the parent alone.
Tested on: leukämische Zellen L 1210
Assay: Colony formation test on L 1210 leukaemia cells in agarose (method of Hamburger and Salmon, modified)
Conditions: Mus musculus, L1210, read-out: ED50(IC50) (µg/ml) kontin. Exposition

| Structure (SMILES) | IC50 |
| --- | --- |
| COc1cccc2c1C(=O)c1c(O)c3c(c(O)c1C2=O)C[C@@](O[C@H]1C[C@H](N)C[C@H](C)O1)(C(C)=O)C[C@@H]3O [Verbindung 22b, 9-0-(3'-Amino-2',3',4',6'-tetradesoxy-α-L-threo-hexopyranosyl)-daunomycinon·HCl] | 0.8 µg/mL |
| COc1cccc2c1C(=O)c1c(O)c3c(c(O)c1C2=O)C[C@@](O)(C(=O)CO)C[C@@H]3O[C@H]1C[C@H](N)[C@H](O)[C@H](C)O1 [Adriamycin, reference compound] | 0.02 µg/mL (≈ 0.0368 µM) |
| COc1cccc2c1C(=O)c1c(O)c3c(c(O)c1C2=O)C[C@@](O[C@H]1C[C@H](N)C[C@H](C)O1)(C(C)=O)C[C@@H]3O[C@H]1C[C@H](N)C[C@H](C)O1 [Verbindung 23b, Di-O-7,9-(3'-amino-2',3',4',6'-tetra-desoxy-α-1-threo-hexopyranosyl)-daunomycinon·HCl] | 0.31 µg/mL |
| COc1cccc2c1C(=O)c1c(O)c3c(c(O)c1C2=O)C[C@@](O)(C(C)=O)C[C@@H]3O[C@H]1C[C@H](N2CCOCC2)C[C@H](C)O1 [Verbindung 24, 7-0-(3'-Morpholino-2',3',4',6'-tetradesoxy-α-L-threo-hexopyranosyl)daunomycinon·HCl] | 0.0016 µg/mL |
